From ChEMBL document CHEMBL4888484, “Replenishing the malaria drug discovery pipeline: Screening and hit evaluation of the MMV Hit Generation Library 1 (HGL1) against asexual blood stage Plasmodium falciparum ,using a nano luciferase reporter read-out” (2022)
Screen size: about 150,000 compounds; about 540 (0.36%) showed an effect of 50% or more. Some of the results follow.

system: Plasmodium falciparum; experiment: Primary screen in NF54 nanoGlo assay, in single point, at 2uM, 72h; a lower Z score goes with more inhibition; type: functional, Erythrocyte; conditions: timepoint 72 hour

| SMILES | % Inhibition [%] | Z score |
| --- | --- | --- |
| CCCN(CCC(=O)NCc1ccco1)c1nc(CC)nc2cc(Cl)ccc12 | -2 | 0.18 |
| O=S(=O)(NC[C@@]1(COc2cnccn2)C[C@@H](O)[C@@H](O)C1)c1ccc(Cl)cc1 | 31 | -3.54 |
| CNc1nc(-c2ccccc2)c(-c2ncc(C)c(OC)c2C)s1 | -3 | 0.45 |
| CNC(=O)C1CCC(NC(=O)[C@@H]2CCCN2C(=O)c2ccccc2O)CC1 (stereo partly specified) | -8 | 1.05 |
| CC(C)CNC(=O)c1cn(C2CCN(C(=O)c3ccccc3)CC2)nn1 | -11 | 1.43 |
| Cn1cc(C2=CCN(C(=O)NC(C)(C)C)CC2)c2cccnc21 | 2 | -0.33 |
| Cc1n[nH]cc1CN[C@@H](C)c1ccc(N2CCN(C)CC2)cc1 | 1 | -0.2 |
| Cc1ccc(CNCc2cccn2C)c(OC[C@H]2CCOC2)c1 | -14 | 1.49 |
| C[C@H](NCC(C)(C)C(N)=O)c1cc(Br)ccc1F | -14 | 1.53 |
| CCOC1CC1C(=O)N(C)C(C)C(C)S(C)(=O)=O (stereo unspecified) | 3 | -0.62 |
| CN1C[C@@H](Cn2cnc(-c3ccccc3)c2-c2ccsc2)CC1=O | -4 | 0.72 |
| Cc1cc(CNc2ccc(CCO)nc2)c2c(n1)CCCC2 | 0 | 0 |
| COC(=O)c1ccc2c(c1)CCCN2Cc1cccc2cccnc12 | 16 | -2.46 |
| COc1ccc(C)cc1NC(=O)N1CCCN(c2nc3cc(F)ccc3n3cccc23)CC1 | 3 | -0.49 |
| CN(C)c1cccc(-c2nc(-c3ccc4c(c3)nnn4CCC(=O)N3CCOCC3)no2)c1 | -24 | 3.17 |
| O=C(O)C1CC[C@@H](c2ccccc2)N1C(=O)c1cc(C2CC2)no1 (stereo partly specified) | -4 | 0.84 |
| CN(C(=O)CN1CCCC[C@@H]1Cn1cncn1)c1nccs1 | 0 | 0.02 |
| CN(C[C@H]1CCOC1)C(=O)NCCc1cccc(-c2ccccc2)c1 | 6 | -0.49 |
| Cc1ccc(CN2CCC(N(c3ccc(F)cc3)S(=O)(=O)c3ccccc3)CC2)cc1C | 0 | 0.03 |
| O=C(CC[C@@H]1NC(=O)N(Cc2ccc3c(c2)OCO3)C1=O)Nc1ccccn1 | -16 | 2.01 |
| C[C@H]1Cc2cc(-c3nccn3Cc3nnnn3-c3ccccc3)ccc2O1 | -11 | 1.45 |
| CNC(=O)c1ccn([C@H]2CCCN(C(=O)Cc3coc4ccccc34)C2)n1 | -22 | 2.61 |
| O=C([C@H](Cc1ccccc1)n1cnnn1)N1CCc2ccccc2C1 | -13 | 1.69 |
| CCOc1cc(Cl)ccc1C(=O)N(C)CCC(F)(F)F | -21 | 2.14 |
| NC(=O)[C@@H]1C[C@H](Oc2ccccc2)CN1S(=O)(=O)Cc1ccccc1 | -3 | 0.62 |
| CN(Cc1ccccn1)C(=O)NCCOc1ccc(C#N)cc1 | -28 | 3.34 |
| COc1ccccc1CNC(=O)c1ccc2nnc(C(F)F)n2c1 | -32 | 3.78 |

| SMILES | % Inhibition [%] | Z score |
| --- | --- | --- |
| COCC(C)(C)NS(=O)(=O)CCOc1ccccc1F | -9 | 1.7 |
| Cc1c(NC(=O)[C@@H]2CCc3cc(F)ccc32)cnn1C | -11 | 1.5 |
| CCOC(=O)c1cc(C(C)(C)C)n(C2CCN(C(=O)COCc3ccccc3)CC2)n1 | 4 | -0.51 |
| Cc1cnccc1C(=O)N(C)Cc1nc(C(C)C)no1 | -2 | 0.36 |
| CCC(Nc1ccc2nncn2n1)C1CC1(C)C (stereo unspecified) | 8 | -1.39 |
| CCCn1nc(C)cc1CN(C)c1ccc(NC(=O)c2ccccc2F)cc1C(=O)O | -14 | 1.28 |
| C[C@@H](c1ccncn1)N(C)Cc1ccccc1C(=O)O | -9 | 1 |
| Cc1ccc(C(=O)N2CCCN(S(=O)(=O)c3ccccc3)CCC(=O)NCC2)s1 | -23 | 2.65 |
| Cc1ccc(C)c(NS(=O)(=O)c2cc(C(=O)NCc3ccncc3)ccc2C)c1 | -34 | 4.07 |
| COc1cc2ccccc2cc1C(=O)Nc1ccc(S(=O)(=O)Nc2nc(C)cc(C)n2)cc1 | 0 | 0.02 |
| Cc1ccccc1Oc1cc(NC(=O)c2ccccc2F)cc(NC(=O)c2ccccc2F)c1 | -14 | 2.25 |
| Cc1ccc(C(=O)N2CCCNC(=O)[C@@H]2CC(C)C)nn1 | -4 | 0.51 |
| CC(C)(C)n1[nH]c(=O)c2ccc(F)cc21 | -16 | 2.12 |
| Cc1ccc(C)c(-n2ncnc2CN2CC[C@H](N(C)C)C2)c1 | -2 | 0.39 |
| C[C@H]1CCCCN1C1CN(C(=O)NCCc2ncc[nH]2)C1 | -3 | 0.47 |
| COCCNC(=O)C1CC(c2ccccc2)CN(C(=O)Cc2ccccc2)C1 (stereo unspecified) | -2 | 0.34 |
| COc1ccc(C)c2sc(N(Cc3ccccn3)C(=O)CN3C(=O)CCC3=O)nc12 | -11 | 1.42 |
| CC(C)N(CC1CCC1)C(=O)NC1CCC(Oc2cnccn2)CC1 (stereo unspecified) | 29 | -3.26 |
| N[C@H]1CC2(CCC2)Oc2ccc(Br)cc21 | -4 | 0.62 |
| COc1cc(-c2ccnc(N3CCN(S(=O)(=O)c4ccc(F)cc4F)CC3)n2)cc(OC)c1OC | -4 | 0.5 |
| Nc1c(Br)cc2oc(-c3ccc4ccccc4c3)nc2c1Br | 36 | -1.3 |
| CCOCC1(CNC(=O)c2ccccc2Cl)CCC1 | -10 | 1.48 |
| CC(C)COC1CCN(C(=O)CCN2CCOC2=O)CC1 | -3 | 0.48 |
| COc1ccnc(C(=O)N(c2ccc(C)cn2)C2CCCCC2)c1 | -1 | 0.17 |
| COc1ccccc1[C@@H]1CC(c2ccc(C)c(C)c2)=NN1C(=O)CN1CCC(C)CC1 | -3 | 0.3 |
| Cn1c(C(=O)N2CC[C@@H](NC(=O)c3n[nH]c4c3CCCC4)C2)cc2ccccc21 | -14 | 1.56 |
